Experimental data published in the supplement of paper PMC3334620.
The full ranking holds about 33,000 sequences; the median of “E-score (-0.5 to 0.5)” is about -0.04, and the highest 2% start at about 0.36. This is one part of the list.

Biological target: T1, Hmlalpha2 (UniProt P0CY09)
T1 sequence: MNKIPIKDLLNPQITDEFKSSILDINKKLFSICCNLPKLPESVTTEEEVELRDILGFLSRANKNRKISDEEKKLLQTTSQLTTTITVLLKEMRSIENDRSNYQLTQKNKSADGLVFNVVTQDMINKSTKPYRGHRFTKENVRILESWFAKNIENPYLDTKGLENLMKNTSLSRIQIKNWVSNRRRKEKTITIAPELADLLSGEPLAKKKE
Experiment: PBM E-score (8-mer binding enrichment) (E-score (-0.5 to 0.5)); higher = stronger / more preferred TF binding; most listed sequences are background and not binding sites
Details: protein concentration: 200 nM; construct: GST-full length
How it was run: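 Universal all-10-mer Agilent arrays, fresh or stripped once, were converted to double-stranded form by primer extension. GST-tagged yeast transcription factors from PURExpress in vitro transcription/translation, full-length or DNA-binding domain only, were applied at about 100-200 nM and detected with fluorescent anti-GST. After masliner normalisation, the Universal PBM Analysis Suite scored each ungapped eight-base word together with its reverse complement by E-score.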

Sequence	PBM E-score
CCTACTCC	-0.12
GCGCTCCA	-0.291
CGATTCTC	-0.0697
ACGTACTA	0.256
GAGGGGAA	-0.264
ATCAATGA	0.213
AGACCCCT	-0.26
GGCCCACC	-0.287
ACGGGCCC	-0.198
CGGACGAA	0.154
GGACTTGA	-0.26
ATTCTTGG	-0.0614
ATTAAACC	0.0575
AACATGTA	0.484
AATCTTAT	0.114
TCTACAAA	0.252
ACTTGAGA	0.0583
AATGTAGT	0.249
ACCTTGGG	-0.151
AGGTGGCG	-0.196
TGTGTGAA	0.335
ACTTTCCG	-0.202
AGCAATAC	0.192
ATCAATTA	0.263
CTAAGATA	-0.0324

Sequence	PBM E-score
CACCTCTC	-0.182
ATGTGTCG	0.144
CAGTTCGG	-0.104
CGTGAGCC	-0.137
TCATGAAA	-0.126
GAGCCGGC	-0.351
AGTTTATG	0.0382
GGGGTGGA	-0.271
AACGAAAG	0.0852
CACAAATC	-0.074
CATTGGTC	-0.135
AAAGTTCC	-0.169
GTTTTCGA	0.09
AATATTCA	0.142
CAACAGTA	0.106
AAGTCCCA	-0.329
AGTAGATC	-0.0121
CTGAGTGA	0.0278
ATTCCCCG	0.0375
CATTTGAG	0.111
CACTGCTG	-0.316
CGGGACCA	-0.225
AATTTCAT	0.0645
ACCGACAA	-0.23
AAAAAGCG	-0.0415

Sequence	PBM E-score
GGGGCTCA	-0.306
AAAGAAAT	0.175
CCCTATCC	-0.338
CACTTACA	0.281
GCTGTCGA	-0.092
GTCGGAAA	-0.0612
GTGTACTA	0.311
GCGCCGCC	-0.159
ATTCTACG	0.157
GTAAGGTA	0.284
ACAGGTCA	-0.0382
CTCGGGTA	0.0203
AAGACCTA	-0.143
ACAGCGCC	-0.00098
CGCCCGTC	-0.192
AATACGGG	-0.051
ATGAGCCG	-0.236
AGAGTATA	0.116
GAGTTCCC	-0.146
ACCTTCTG	-0.0867
GATGCGTA	0.21
CAGTTCTC	-0.179
AGAGGAAT	-0.0603
ATGCCCTG	-0.0289
CAAGCTTG	0.0552

Sequence	PBM E-score
ACATAATC	0.308
AAACCCCC	-0.257
AGACTTTC	-0.193
CTATCTCA	-0.184
CGCGTGAA	0.214
TATGAAAA	0.143
GAACTGGA	-0.147
ATGGTCAG	-0.0329
AGGATTAA	0.0424
CAAACTCC	0.00776
GATAGGCA	-0.125
AGAGACAA	-0.113
TGAGCTAA	0.107
AACATGGT	0.384
GGAGCTAA	-0.0791
AGGTAAGG	-0.0565
ATCCTAAC	0.116
CGAGCCGC	0.0569
AGACTACT	0.111
ACAAATGA	0.102
GGACGCCA	-0.257
GCCGACCA	-0.155
CATAGGGG	-0.18
ACTTACAC	0.378
GACCATTA	-0.0125

Sequence	PBM E-score
AGCGCCTG	-0.225
AATGAGTC	-0.0327
CAATGTCG	0.223
GCGTTGCC	-0.123
CTTAGCGA	-0.0312
ATGCTTAG	0.104
AAGAAGCT	0.114
CCTTACAC	0.334
TACACAGA	0.424
TACCGAAA	0.0266
AACAAGCG	0.233
ATTGTTCC	-0.0173
GCGCAGCC	-0.315
AGTCGGCA	-0.0135
AGGCGGAG	-0.241
AGAGCTGA	-0.24
AGAGATTG	0.0509
AAGCTCGG	-0.14
ACCGCTTA	-0.0235
CAATATTA	0.213
CTCCTAAA	-0.065
TAGGAAAA	-0.0836
ATGTAATC	0.478
AATCCCCC	-0.225
GCGGCAAA	-0.16

Sequence	PBM E-score
CGAATGTA	0.262
AATCGCTG	-0.0235
CAGCAAGA	-0.0162
CTGCAAAC	-0.0122
CGCCATTA	-0.0604
CCCTGTCC	-0.108
AATGAAGC	-0.0377
GACTTGAC	-0.0157
CCGTCTTA	-0.154
GTTAATGA	0.278
AAGACATC	-0.171
CGACAGCC	-0.223
CACGCAGG	0.196
TAGCGTCA	0.0061
CCGGCCGA	-0.226
CAGCCCCG	-0.108
CCATAGCC	-0.191
CACTCTTC	-0.174
ATCGGCAT	-0.0468
CAGTTGCA	0.00547
GTAGCAAA	0.128
CATGTTAC	0.41
GATTTCCA	-0.0253
ATAGCTGA	-0.077
ACCCTCAC	-0.24

Sequence	PBM E-score
AAACCAGG	-0.0724
CGCACCTC	-0.166
GGAAGATA	0.0425
AAGCTAGA	-0.06
CCGTGATA	-0.137
AAAATGTG	-0.0256
GCGATGAC	0.0674
GAGTGGAC	-0.165
AGGTTGGG	-0.0364
CCGTCAAC	0.0119
AATCCACA	0.0311
CACCCCAG	-0.205
AGTATGAC	0.0358
AATATCCA	0.0842
TCACCCCA	-0.0867
GTCGTGTA	0.464
AACCCACG	-0.0684
ATATAGAT	0.151
AAGTAAGA	0.0354
AAGGCACG	-0.0893
AATGGCGT	-0.15
AAATTCCC	-0.118
